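Each compound was tested at five concentrations against cells in 96-well plates for 48 hours. Here, GI50 denotes the concentration required for 50% inhibition of growth. TGI: concentration producing complete growth inhibition.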
Test system: NCI-H322M lung
Test: NCI anticancer screen, dose series, 48 h

CCC(=C(c1ccc(OCCN(C)C)cc1)c1ccc(OCCN(C)C)cc1)c1ccc(Cl)cc1
GI50: 3.17 µM
TGI: 6.38 µM

CCCc1cc2cc(-n3nc(CC)c4c3CC(C)(C)CC4=O)cc(NC3CCC(O)CC3)c2c(=O)[nH]1 (configuration not stated)
GI50: 2.48 µM
TGI: > 100 µM

COc1cc(OC)c(/C=C/S(=O)(=O)Cc2ccc(OC)c(NC(=O)CCC(=O)NO)c2)c(OC)c1
GI50: 0.0649 µM
TGI: > 100 µM

Oc1cccc2ccc(-c3nnc(SCc4ccc(O)c5ncccc45)n3-c3ccccc3)nc12
GI50: 0.552 µM
TGI: > 31.9 µM

O=C(NCCCNc1cc(-c2cn(-c3ccccc3)nc2-c2cccc(O)c2)ccn1)Nc1ccc(F)cc1
GI50: 3.7 µM
TGI: 12.4 µM

Cc1cccc(/C=C/C(=O)Nc2ncc(Cc3cccc(C)c3)s2)c1
GI50: 1.17 µM
TGI: > 100 µM
